# Measured values reported in ChEMBL document CHEMBL1201862, “PubChem BioAssay data set” (2004).
#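 Briefly, cells in 96-well plates were exposed to five compound concentrations for 48 h, and endpoints were estimated by linear interpolation. GI50: concentration for 50% inhibition of growth.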 The source made the active and inactive calls. Rule as the data show it: active = GI50 up to about 1.1 µM and inactive = higher.
# Test system: NCI-H322M
# Assay: NCI anticancer screen, dose series, 48 h
row,SMILES,GI50
1,COc1ccc(C(=O)c2[nH]c(Nc3cc(C)ccn3)c(C(=S)Nc3ccccc3)c2N)cc1,inactive: 12 µM
2,CC1OC(n2cc(F)c(=O)[nH]c2=O)CCC1O (stereo not drawn),inactive: > 100 µM
3,CC1(C)C2CCC1(C)[C@H](n1c(=O)n([C@@H]3CC4CCC3(C)C4(C)C)c(=O)n([C@@H]3CC4CCC3(C)C4(C)C)c1=O)C2,inactive: > 100 µM
4,COc1cc(C2C3=C(CCC3=O)Oc3cc4c(cc32)OCO4)cc(OC)c1OC (stereo not drawn),active: 0.403 µM
5,C#CCOC(=O)c1ccccc1O,inactive: > 100 µM
6,CC(C)=CCC[C@@H](C)C1=C(O)C(=O)C(C)=C(Nc2ccccc2Br)C1=O,inactive: 18.9 µM
7,Cc1cc(S(=O)(=O)Nc2nc(N)n(-c3cnc4ccccc4n3)n2)c(S)cc1Cl,inactive: 76.9 µM
8,COc1cc(C(=C2SCCS2)c2nccc3cc(OC)c(OC)cc23)c([N+](=O)[O-])cc1OC,inactive: > 100 µM
9,NC(CCCCO)C(=O)O (stereo not drawn),inactive: > 100 µM
10,CCOC(=O)C1(C(=O)OCC)CC(=O)[C@@]2(C1)OCC[C@H]1OC(=O)C[C@H]12,inactive: > 100 µM
11,CCn1cnc2c(NC(C)=O)ncnc21,inactive: > 100 µM
12,CN(C)Cc1cc(C(=O)/C=C/c2c(F)cccc2Cl)cc(CN(C)C)c1O,inactive: 14.3 µM
13,COc1ccc(OC)c(-c2nc3n(c2/C=C2/C(=O)Nc4ccccc42)CCS3)c1,inactive: > 100 µM
14,Cc1cccc(C)c1NC(=O)C(=O)C(c1ccccc1Cl)S(=O)(=O)Cc1ccccc1Cl (stereo not drawn),inactive: > 100 µM
15,c1ccc(C(=NNc2nc3ccccc3o2)c2ccccn2)nc1,active: 0.0738 µM
16,O=C(NC1=C(Cl)C(=O)c2ccccc2C1=O)C(=O)c1c(O)c2ccccc2oc1=O,inactive: 6.55 µM
17,Cc1c2ccccc2c(C)c2c3c(ccc12)C(=O)C=CC3=O,inactive: > 85.5 µM
18,CNC(=S)N/N=C(\C)c1nc2cccnc2[nH]1,inactive: 38.1 µM
19,O=C1CCCC/C1=C1/SC(=N/c2ccccc2)/C(=N\c2ccccc2)N1c1ccccc1,inactive: > 100 µM
20,Clc1nc(Cl)c(Cl)c(Cl)n1,inactive: 17.1 µM
21,OCCNc1nc2c(N3CCCC3)nc(N3CCNCC3)nc2nc1NCc1ccccc1,inactive: 12.6 µM
22,O=C(O)c1cc2ccccc2c(/N=N/c2ccc(S(=O)(=O)Nc3ccccn3)cc2)c1O,inactive: > 100 µM
23,C(=N\c1nc2cc3sc(/N=C/c4cccs4)nc3cc2s1)/c1cccs1,inactive: > 100 µM
24,CCOC(=O)/C=C(\C(=O)OCC)n1cc(C)c(=O)n(Cc2cn(COCCOC(C)=O)nn2)c1=O,inactive: 44.2 µM

row,SMILES,GI50
1,CC(=O)N1N=C(c2ccccc2Nc2ccccc2C2=NN(C(C)=O)C(c3ccccc3)O2)OC1c1ccccc1 (stereo not drawn),inactive: > 100 µM
2,O=C1NC(=O)C(F)(n2cc(F)c(=O)[nH]c2=O)C(O)N1 (stereo not drawn),inactive: > 10 µM
3,CCOC(=O)c1nc2ccccc2nc1Oc1cc(OC)cc(OC)c1,inactive: > 100 µM
4,Cn1c2ccccc2c(=O)c2c(O)cc3c(c21)C=CC1(CCCCC1)O3,inactive: > 10 µM
5,O=C1C=C(NCC(c2ccccc2)c2ccccc2)C(=O)c2ncccc21,inactive: 1.69 µM
6,COc1cc(C2C3=C(NC(=O)C2C#N)c2ccc4ccccc4c2OCC3)cc(OC)c1OC (stereo not drawn),inactive: 30 µM
7,COC(=O)C1=CC2C(=O)OC1CC2C#N (stereo not drawn),inactive: > 100 µM
8,NC1=CN2c3ccccc3N(CC(=O)N3CCOCC3)C2C=C1 (stereo not drawn),inactive: > 100 µM
9,Cc1ccccc1C(=O)N1CCN(C(=O)c2ccccc2C)CC1,inactive: > 100 µM
10,O=C1C=C(N2CCCC2)C(=O)c2c(O)ccc(O)c21,inactive: > 10 µM
11,COCn1c(=O)n(C)c(=O)c2c1nc1c(c(=O)n(C)c(=O)n1COC)[n+]2[O-],inactive: 22.3 µM
12,c1ncc(C23C4C5C6C4C2C6C53)[nH]1 (stereo not drawn),inactive: > 100 µM
13,COc1cc2c(cc1OC)C1=C(C=O)c3ccc(OC)c(OC)c3C(O)N1CC2 (stereo not drawn),inactive: 27.5 µM
14,CC1(C)CNCC(C)(OCc2ccccc2)C(=O)NC(C)(C)CNCC(C)(OCc2ccccc2)C(=O)N1 (stereo not drawn),inactive: > 10 µM
15,COc1cccc(C2c3cc4c(cc3OC(Nc3ccccc3)C2C)OCO4)c1O (stereo not drawn),inactive: 12.6 µM
16,COC(=O)C12CCC(C)(C)CC1C1=CCC3C4(C)CC(O)C(O)C(C)(C(=O)OC)C4CCC3(C)C1(CO)CC2 (stereo not drawn),inactive: 17.6 µM
17,CCOC(=O)c1[nH]c(Br)c(-c2ccc(Br)cc2)c1Br,inactive: 4.45 µM
18,CCOC(=O)c1nnsc1NC(=O)Nc1ccc(Cl)cc1,inactive: 32 µM
19,CC(C)(C)OC(=O)N1Cc2cc(O)ccc2C[C@H]1C(=O)O,inactive: > 100 µM
20,CC(=O)C1C(=O)C(=O)N(c2cccc([N+](=O)[O-])c2)C1=O (stereo not drawn),inactive: > 100 µM
21,COc1cccc(/C=C2\CCC(CN(C)C)C2=O)c1 (stereo not drawn),inactive: 17.1 µM
22,O=S1(=O)c2cnccc2N=C(NCc2ccccc2)N1c1ccccc1,inactive: > 100 µM
23,CC(C)(CNC(=O)/C(Cl)=C(/Cl)C(=O)O)CNC(=O)/C(Cl)=C(/Cl)C(=O)O,inactive: > 100 µM
24,C/C(=N\c1cccc(Cl)c1)c1ccncc1,inactive: 88.7 µM

row,SMILES,GI50
1,CCOC(=O)c1c(-c2ccc(OC)cc2)c(C#N)c(=S)n(C2OC(CO)C(O)C(O)C2O)c1C (stereo not drawn),inactive: > 100 µM
2,Cc1coc2c1[C@@H](O)[C@@]1(C)[C@H](CCC[C@@H]1C)C2,inactive: 45.2 µM
3,COC(=O)[C@@](NC(=O)OCc1ccccc1)([C@H](C)O)C(F)(F)F,inactive: > 100 µM
4,C/C(CC(=O)Nc1cccc(Cl)c1C)=N\N=C(N)N,inactive: > 100 µM
5,Cc1cccc(C)c1CO,inactive: > 100 µM
6,O=C(CCC(=O)Nc1ccc(Cl)cc1)CC(=O)c1ccc2ccccc2c1,inactive: > 100 µM
7,Cc1c2cccc-2c2cc(O)c3ccccc3c2n1-c1ccc(N(C)C)cc1,inactive: 10.8 µM
8,CCOC(=O)C12CC(C)=C(C)CC1CCCc1ccccc12 (stereo not drawn),inactive: 35.5 µM
9,COc1cc(/C=C2\CCc3cc(OC)c(OC)cc3C2=O)cc(OC)c1,inactive: 15.5 µM
10,C=CCC(C(=O)OC)C1(C(=O)OC)c2[nH]c3ccccc3c2CCN1Cc1ccccc1 (stereo not drawn),inactive: > 100 µM
11,c1ccc2[nH]c(CNc3ccc(C4C[Se]N=N4)cc3)nc2c1 (stereo not drawn),inactive: 35.5 µM
12,C=C1C(=O)C[C@@]23CCC[C@@]12CC(OCOC)C3 (stereo partly drawn),inactive: 13.2 µM
13,COc1cc(C(=O)N(C(=S)OC23CC4CC(CC(C4)C2)C3)c2ccccc2)cc(OC)c1OC,inactive: 32.7 µM
14,CC1=C(C(=O)Nc2ccc(C)cc2)C(c2cccc([N+](=O)[O-])c2)C(C(=O)Nc2ccc(C)cc2)=C(C)N1,inactive: 37.8 µM
15,CN(C)CC1CN/C(=N\C(=O)Nc2ccccc2)O1 (stereo not drawn),inactive: > 100 µM
16,CC(C)(C)N1Cc2ccccc2/C(=C/Sc2ccccc2)C1=O,inactive: 16.4 µM
17,[N-]=[N+]=Nc1ccc2c(c1)Sc1ccccc1N2CCCCN1CCN(C(=O)CCNC(=O)Cc2ccc(C(=O)c3ccccc3)cc2)CC1,inactive: 5.26 µM
18,O=[N+]([O-])c1ccc(C(=S)Nc2ccccc2)o1,inactive: 5.28 µM
19,Cc1cc2c(c3c1c1ccccc1n3C)C(=O)C=CC2=O,inactive: 20.5 µM
20,Cc1ccc(S(=O)(=O)Nn2c(-c3ccccc3)c(C#N)c(-c3ccc([N+](=O)[O-])cc3)c(C#N)c2=O)cc1,inactive: > 100 µM
21,OC[C@H]1O[C@@H]2O[C@@](COCc3ccccc3)([C@H](OCc3ccccc3)[C@H]2O)[C@@H]1OCc1ccccc1,inactive: 13.6 µM
22,CC(C)(C)C(=O)O[C@@H]1COC2C(O)COC21 (stereo partly drawn),inactive: > 100 µM
23,O=c1oc2ccc3ccccc3c2cc1-c1cn2c(n1)sc1ccccc12,inactive: > 100 µM
24,O=C(NCc1ccccc1)c1c(O)nc2ccccc2c1O,inactive: > 100 µM

row,SMILES,GI50
1,Oc1ccc(Cl)cc1C1=NC(NCN2CCN(CNC3=NC(c4ccccc4)CC(c4cc(Cl)ccc4O)=N3)CC2)=NC(c2ccccc2)C1 (stereo not drawn),inactive: 41.6 µM
2,O=c1c2ccccc2oc2nc3n(c(=O)c12)CCCS3,inactive: > 100 µM
3,CC(=O)C(=Cc1ccc(C=C(C(C)=O)C(C)=O)cc1)C(C)=O,inactive: 2.37 µM
4,O=C1c2cccc(O)c2C(=O)c2c(O)cc(CO)cc21 [ALOE-EMODIN],inactive: 48.6 µM
5,CC1=CC(=O)N2[C@H](OC[C@@H]2C(C)C)O1,inactive: > 100 µM
6,C(#CC1(Nc2ccccc2)CCN(Cc2ccccc2)CC1)C1(Nc2ccccc2)CCN(Cc2ccccc2)CC1,inactive: > 31.6 µM
7,COc1nc(N=P(c2ccccc2)(c2ccccc2)c2ccccc2)cc(=O)[nH]1,inactive: > 100 µM
8,CCOc1cccc2sc(N)nc12,inactive: > 100 µM
9,N#Cc1cc([N+](=O)[O-])ccc1NC(=O)C(F)(F)F,inactive: > 100 µM
10,C=CCNC1=C2C[C@@H](C)C[C@@H](OC)[C@H](OC(=O)CCN)[C@H](C)/C=C(\C)[C@@H](OC(N)=O)[C@H](OC)/C=C\C=C(/C)C(=O)NC(=CC1=O)C2=O,inactive: 7.41 µM
11,Nc1nc(SCC(=O)c2ccc(Br)cc2)c2nc[nH]c2n1,inactive: 78 µM
12,O=c1ssc(Cl)c1Nc1c(Cl)ssc1=O,inactive: 19.2 µM
13,CC1CC2OC(=O)C(C)C2CC2(C)C(OC3OC(CO)C(O)C(O)C3O)OCCC12 (stereo not drawn),inactive: > 100 µM
14,Cc1ccsc1C(=O)C(CC(=O)c1cccs1)c1ccsc1 (stereo not drawn),inactive: 51.4 µM
15,CSCCCNC(=O)c1csc(-c2csc(CCNC(=O)CNC(=O)CNC(=O)CNC(=O)OC(C)(C)C)n2)n1,inactive: > 100 µM
16,CC(O)(P(=O)(O)O)P(=O)(O)OCC(O)CN1CCOCC1 (stereo not drawn),inactive: > 100 µM
17,Nc1nc(N)c(/N=N/c2ccc(C(=O)O)c(O)c2)c(N)n1,inactive: > 100 µM
18,N#CC1(C#N)C2=C(CCCC2)NC(c2ccc(Br)cc2)C1(C#N)C#N (stereo not drawn),inactive: 18.1 µM
19,COC(=O)[C@@H](Cc1ccccc1)N1O[C@]12CCCC[C@@H]2NC(=O)OC(C)(C)C (stereo partly drawn),inactive: 96.8 µM
20,OCCN1CCN(CCO)Cc2ccccc2OCCOc2ccccc2C1,inactive: > 100 µM
21,COc1cc(-c2cc(=O)c3c(OC)c(OC)c(OC)c(OC)c3o2)cc(OC)c1OC [HEPATAMETHOXYFLAVONE],inactive: 58.9 µM
